Experimental data taken from PubChem BioAssay AID488969 (Vanderbilt High Throughput Screening Facility, 2010).
The full ranking holds about 110,000 compounds; the median of “z-score” is about -0.1, and the highest 2% start at about 2. Some of the results follow.

biological target: Metabotropic glutamate receptor 8 (Rattus norvegicus) (UniProt P70579); test: mGluR8 Gi/Go-coupled signaling modulation – cell-based, rat, thallium flux, HTS, primary screen (AID 488969); conditions: HEK293 rat mGluR8, GIRK (G protein-gated inwardly rectifying potassium channel) thallium flux, FluoZin2; at 10 µM; stronger effect = higher value; submaximal glutamate (EC20) added with thallium
UniProt P70579, sequence (P70579 whole entry, looked up): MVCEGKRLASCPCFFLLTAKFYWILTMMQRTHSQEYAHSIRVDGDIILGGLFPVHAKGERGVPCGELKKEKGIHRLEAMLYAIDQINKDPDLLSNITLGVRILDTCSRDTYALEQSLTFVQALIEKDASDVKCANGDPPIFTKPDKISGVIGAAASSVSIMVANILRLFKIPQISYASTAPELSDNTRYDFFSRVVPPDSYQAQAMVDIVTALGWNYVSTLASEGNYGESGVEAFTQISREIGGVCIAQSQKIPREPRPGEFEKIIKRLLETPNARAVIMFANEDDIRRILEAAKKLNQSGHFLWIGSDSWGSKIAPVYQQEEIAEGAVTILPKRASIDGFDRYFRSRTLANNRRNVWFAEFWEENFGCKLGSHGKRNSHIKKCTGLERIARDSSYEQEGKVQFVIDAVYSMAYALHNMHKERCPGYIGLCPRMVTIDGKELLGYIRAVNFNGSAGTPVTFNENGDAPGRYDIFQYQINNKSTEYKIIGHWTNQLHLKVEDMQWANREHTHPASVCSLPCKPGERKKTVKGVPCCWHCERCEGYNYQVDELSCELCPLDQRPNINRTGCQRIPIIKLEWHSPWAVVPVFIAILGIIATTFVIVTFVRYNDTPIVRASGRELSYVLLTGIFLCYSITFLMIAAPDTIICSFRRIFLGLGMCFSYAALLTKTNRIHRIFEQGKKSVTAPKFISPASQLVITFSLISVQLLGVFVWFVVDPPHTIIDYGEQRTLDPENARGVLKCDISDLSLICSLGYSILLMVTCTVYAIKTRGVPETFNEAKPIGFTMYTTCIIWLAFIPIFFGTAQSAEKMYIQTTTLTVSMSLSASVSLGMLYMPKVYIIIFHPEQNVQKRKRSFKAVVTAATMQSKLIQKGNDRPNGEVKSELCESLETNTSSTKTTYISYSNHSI

In order of rising z-score:
1. COc1cc(S(=O)(=O)N2CCCCCC2)ccc1Cl  -2.81
2. CCCCc1nc2ccccc2c(N)c1CCC (tested in a mixture with another compound)  -2.59
3. Cc1cc2nnc(SCC(=O)OC(C)C)n2c2ccccc12  -2.26
4. O=C(c1cnn(C(=O)COc2ccc(Cl)cc2)c1)c1ccccc1O  -1.59
5. C=C(C)C1Cc2c(C)nn(-c3cccc4ccccc34)c2C1 (configuration not stated)  -1.35
6. CC1(C)CC(=O)C(C=Nc2ccc3cn[nH]c3c2)=C(O)C1  -1.3
7. COc1ccc2cc(/C=C/C(=O)c3ccco3)c(Cl)nc2c1  -0.845
8. Cc1oc(-c2cccs2)nc1CS(=O)CC(=O)NCCCN1CC(C)CC(C)C1 (configuration not stated)  -0.771
9. CCOc1ccc(NC(=O)c2cnccn2)cc1  -0.73
10. CCOc1ccc(NC(=O)c2cc3c(=O)n(C)c4ccccc4c3n2C)cc1  -0.678
11. Nc1nc2ccc(C(=O)NC3CCCCC3)cc2s1  -0.619
12. NC(=O)CSc1nc(-c2ccccc2)c(-c2ccccc2)o1  -0.595
13. O=C(COc1ccccc1)Nc1cccc(-c2nc3ccccc3[nH]2)c1  -0.566
14. O=C(NCC(c1cccnc1)N1CCN(c2ccccc2)CC1)C1CCCCC1 (configuration not stated)  -0.559
15. CCOC(=O)c1ccccc1NC(=O)CCNC(=O)Cn1cnc2ccccc2c1=O  -0.535
16. COc1ccc(/C=N/Nc2ccc([N+](=O)[O-])cc2)cc1Cn1cc([N+](=O)[O-])cn1  -0.498
17. CCOc1ccccc1NC(=O)Cc1c(F)cccc1Cl  -0.491
18. CCOC(=O)N1CCC2(CC1)C(C#N)=C(N)Oc1c2c(C)nn1-c1cccc(Cl)c1  -0.473
19. COC(=O)c1[nH]c2ccc(Cl)cc2c1NC(=O)c1ccccc1[N+](=O)[O-]  -0.463
20. O=c1c2c(ncn1Cc1ccccc1)nc1n2CCC1  -0.427
21. O=C(NCc1ccco1)Nc1cccs1  -0.42
22. CCCNC(=O)N1CCN(c2nc(C(C)C)c3c(c2C#N)CC(C)(C)OC3)CC1  -0.42
23. Cn1c(SCC(=O)N2CCCCC2)nnc1-c1ccc(S(=O)(=O)N2CCOCC2)cc1  -0.416
24. COc1cc2c(cc1NC(=O)c1ccncc1)oc1ccccc12  -0.383
25. Cc1cc(NC(=O)c2cccc(S(=O)(=O)N3CCCCCC3)c2)n(-c2ccccn2)n1  -0.374
26. Cc1nnc(NC(=O)c2oc3cc(C)c(C)cc3c2C)s1  -0.347
27. COc1ccc(C)cc1N(C(=O)c1ccccc1)c1nc2ccccc2s1  -0.344
28. CCC(C)(C)n1nnnc1C(c1cc2cc3c(cc2[nH]c1=O)OCO3)N1CCCCC1 (configuration not stated)  -0.327
29. Cc1cc(/C=N/NC(=O)c2cccs2)c(C)n1-c1ccccc1  -0.317
30. COc1ccc(OC)c(NC(=O)Nc2cccc3ccccc23)c1  -0.306
31. CCOC(=O)c1c(C)nc2ccc(Cl)cc2c1-c1ccccc1  -0.289
32. CN(C=O)CP(=O)(O)CN1CCCCC1  -0.279
33. COc1cccc(C(=O)NC(Cc2ccccc2)c2ccc3c(c2)OCCCO3)c1 (configuration not stated)  -0.279
34. O=C(CSc1nnc(-c2ccccn2)n1-c1ccccc1)Nc1ccc2c(c1)OCO2  -0.262
35. CC(C)OCC(O)CN1CCNCC1 (configuration not stated)  -0.257
36. Cc1ccc2oc(=O)c3cnn(CC(=O)N4CCCCCC4)c3c2c1  -0.256
37. COc1ccc(C2=NOC(C(=O)NCc3cccs3)C2)cc1 (configuration not stated)  -0.248
38. CNc1nc(C)cc(C)c1S(=O)(=O)c1ccc(C)cc1  -0.246
39. COc1cnc(SCC(=O)O)[nH]c1=O  -0.243
40. COc1ccc(NC(=S)N(CCN(C)C)C(C)c2ccco2)cc1 (configuration not stated)  -0.233
41. COC(=O)c1c(NC(=O)CSc2nnc(-c3ccco3)n2Cc2ccccc2)sc(C)c1C  -0.23
42. COc1ccccc1NC(=O)c1nn(-c2ccc(Cl)cc2)ccc1=O  -0.217
43. CCOC(=O)c1c(C)oc2c1c1c(c3ccccc32)OCN(Cc2ccccn2)C1  -0.209
44. Cc1ccnc(-n2c(CCN3C(=O)c4ccccc4C3=O)nc3ccccc3c2=O)c1  -0.208
45. O=C1c2ccccc2C(=O)N1CCc1csc(-c2ccc(F)cc2)n1  -0.208
46. CCc1nc2ccccc2n1CC(O)COc1ccc(NC(C)=O)cc1 (configuration not stated)  -0.194
47. Cn1c(=O)n(C)c2cc(S(=O)(=O)Nc3ccccc3O)ccc21  -0.188
48. COc1ccc(-c2nsc3c(N4CCN(C(=O)c5ccco5)CC4)ncnc23)cc1  -0.179
49. CCCCCn1ccc(=O)c2c(C(F)(F)F)nccc21  -0.164
50. COC(=O)COc1ccc(Oc2cc(C)nc(SC)n2)nn1  -0.159
51. CC(Sc1nc2ccccc2s1)C(=O)Nc1ccc2c(c1)OCO2 (configuration not stated)  -0.149
52. COC(=O)Cc1cc(=O)n(-c2ccccc2)[nH]1  -0.148
53. C=CCOc1ccc(CNc2nn[nH]n2)cc1OC  -0.144
54. O=[N+]([O-])c1cc(C(F)(F)F)ccc1NCCCCNS(=O)(=O)c1ccc(Cl)cc1  -0.137
55. COc1ccc(NC(=S)N2CCN(Cc3ccco3)CC2)c(OC)c1  -0.136
56. CCOC(=O)c1ccc(NC(=O)CNS(=O)(=O)c2ccccc2)cc1  -0.133
57. CCNC(=O)/C(=C/c1ccco1)NC(=O)/C=C/c1ccccc1  -0.13
58. O=C(Nc1ccc(Br)cc1)c1ccc(N2C(=O)C3CC=C(Cl)CC3C2=O)cc1 (configuration not stated)  -0.122
59. Cc1ccc(Sc2ncccc2COC(=O)Nc2c(C)cccc2C)cc1  -0.116
60. CN(C)C=NC1=NN(c2cccc(C(F)(F)F)c2)CC1  -0.113
61. CCCCC(=O)Nc1ccnc(-c2cccnc2)n1  -0.109
62. CC(C)CCOc1ccc(Cl)cc1CN1CCOCC1  -0.105
63. C=CCNc1nc(-c2ccc(Cl)cc2)cs1  -0.104
64. Cc1ccc(OCCCC(=O)Nc2nncs2)cc1  -0.0937
65. Clc1ccc(CN(Cc2ccccc2)C(c2cccs2)c2nnnn2C2CCCC2)cc1 (configuration not stated)  -0.0933
66. CCOc1ccc(NC(=O)c2ccccc2OCC(=O)c2ccc(C)cc2)cc1  -0.0908
67. CC(C)CN(CCOc1cccc(N2C(=O)C3=C(CCCC3)C2=O)c1)CC(C)C  -0.0907
68. Cc1cc2c(C)nc(N/N=C/c3ccccc3)nc2o1  -0.0883
69. Brc1ccc(OCCOCCOc2cccc3cccnc23)cc1  -0.0876
70. COc1ccc(C)cc1NC(=O)C(OC(=O)CNC(=O)c1cc(C)cc(C)c1)c1ccccc1 (configuration not stated)  -0.0762
71. CCC(=O)N1CCN(c2nc3ccccc3s2)CC1  -0.0557
72. COCCCNCC(=O)c1c(N)n(Cc2ccccc2)c(=O)n(C)c1=O  -0.0535
73. C=CCOC(=O)CSCC(NC(=O)OC(C)(C)C)C(=O)OCC (configuration not stated)  -0.0461
74. Cc1ccccc1C(=O)NNC(=O)CN1C(=O)c2ccccc2C1=O  -0.0438
75. CSc1ccccc1C(=O)N1CCN(c2ccc(F)cc2)CC1  -0.0286
76. CC1CCN(C(=O)c2cc3nc(-c4ccccc4)cc(-c4ccccc4)n3n2)CC1  -0.0035
77. COC(=O)CCC(=O)NNC(=O)c1ccc(Cl)cc1Cl  0.047
78. Cc1ccc(-c2noc(CN(C(=O)C34CC5CC(CC(C5)C3)C4)C(C)C)n2)cc1  0.0589
79. COc1cccc2c(=O)n(CC(=O)Nc3cccc(F)c3)ccc12  0.0811
80. Cc1nnsc1Sc1cccc(C(F)(F)F)c1  0.0904
81. CCCN1CCN(C(=O)Nc2ccc(C(=O)OCC)cc2)CC1  0.101
82. CC1CN/C(=C\C(=O)c2ccc(Cl)cc2)C(=O)N1 (configuration not stated)  0.105
83. O=C1N2CCCc3cccc(c32)C12Nc1ccccc1S2 (configuration not stated)  0.109
84. CCC(=O)NCCN1CCN(C(=O)CC)CC1  0.112
85. S=C(Nc1ccc(Cl)cc1)N1CCOCC1  0.122
86. COc1ccc(OC(=O)c2cc3ccccc3o2)cc1  0.125
87. Cc1ccc(C)c(NCCC#N)c1  0.144
88. O=C(NCc1cccs1)c1ccc(N2CCCC2=O)cc1  0.148
89. CN(C)CC1CCCCC1OC(=O)c1ccc(Cl)cc1 (configuration not stated)  0.182
90. COc1ccc(Cl)cc1NC(=O)C(=O)NC1CCCCCC1  0.246
91. O=S(=O)(CCc1nc2ccccc2o1)c1ccc(Cl)cc1  0.262
92. Cc1ccc(CSCC(=O)Nc2ccc(F)cc2)cc1  0.284
93. COc1cc2c(C(=O)NCc3ccccn3)cn(C)c(=O)c2cc1OC  0.285
94. Cc1cccc(OCCCC(=O)Nc2ccc(N3CCOCC3)cc2)c1  0.308
95. N/C(=N\OC(=O)c1cccc(Cl)c1)c1cccnc1  0.314
96. O=C(c1ccccc1S(=O)(=O)NCc1ccccc1)N1CCCC1  0.32
97. CC(=O)Nc1ccccc1N(C)S(=O)(=O)c1ccc(C)cc1  0.334
98. S=C(Nc1ccc(Cl)cc1Cl)NC1CCN(Cc2ccccc2)CC1  0.338
99. Cc1nc2c3ccccc3n(CCN3CCCCC3)c2s1  0.34
100. Cc1sc2ncnc(SCC(=O)N3CCCC3)c2c1C  0.342
101. COC(=O)CNC(=O)CN1C(=O)N(c2cccc(Cl)c2)C(N(O)C(=O)Nc2cccc(Cl)c2)C1(C)C (configuration not stated)  0.365
102. Cc1ccccc1NS(=O)(=O)c1ccc(N2CCCC2=O)cc1  0.383
103. O=C(CN1CCCCC1)Nc1cc(Cl)ccc1Cl  0.443
104. C1=C(c2cccc3ccccc23)N2CCN=C2S1  0.487
105. O=C(CCN1C(=O)c2ccccc2C1=O)Nc1cccc(F)c1  0.534
106. COc1cccc(-c2nnc(NC(=O)c3ccc4ncsc4c3)o2)c1  0.649
107. Cc1ccccc1C(=O)NC1CCN(CC(=O)Nc2c(C)cccc2C)CC1  0.736
108. CCC(=O)c1cn(CC(=O)OC)c2ccccc12  0.885
109. O=C(c1ccc(Br)o1)N(c1ccc(Br)cc1)C1C=CS(=O)(=O)C1 (configuration not stated)  0.889
110. CCCOc1ccc(CC(=O)NNC(=S)Nc2ccccc2)cc1Br  1.06
111. O=c1c2ccccc2nc(N/N=C/c2ccccc2)n1O  1.13
112. Cc1cccc(OCCC(=O)Nc2ccc(F)c(Cl)c2)c1  1.34
113. COc1ccccc1-c1nnc(SCc2ccccn2)n1C  1.34
114. Cc1ccccc1-c1coc2cc(O)ccc2c1=O  1.47
115. N=c1c2c3c(sc2nc2n1CCCCC2)CCCC3  1.56
116. Cc1c(C(=O)Nc2ccc(Oc3ccccc3)cc2)sc2nc3n(c(=O)c12)CCC3  1.64
117. S=c1[nH]ncn1/N=C/c1cccc(Oc2ccccc2)c1  1.85
